Laboratory results published in PubChem BioAssay AID445 (National Center for Advancing Translational Sciences (NCATS), 2006).
Out of some 110,000 compounds screened, about 40 (0.04%) were called active. The shares of active, inactive and inconclusive entries below differ from those in the screen. Calls follow the shape of the dose curve; as a rule, active = well fitted curve in the direction sought with a large enough effect in the signal ratio (not every such curve was filed as active); inconclusive = small, poorly fitted or top-dose-only effect, or a change in a side signal; inactive = flat fitted curve, though single readings scatter; the % refers to the signal ratio. A potency beside an inconclusive call is a rough fit, not a confirmed value.

Assay: IkB Signaling;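 as to IkBa stabilization activation: 0% = basal untreated cells and 100% = reference inhibitor full response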
Details: ABC-DLBCL IkBa-CBG/CBR dual luciferase ratio (green luciferase fused to IkBa over red control in OCI-Ly3 lymphoma cells), 4 h; IkBa stabilization activation: at 57.1 µM (top of the series), scaled: untreated 0%, proteasome inhibitor 100% unless noted
Method in brief: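 Luminescence ratio of IκBα-fused green versus native red beetle luciferase in OCI-Ly3 cells, 4 h post-doxycycline with compound; red signal alone, scaled from basal (0%) to zero light (-100%), flagged nonspecific or cytotoxic effects.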
Potency is read from the fitted curve at half-maximal effect.

| SMILES | IkBa stabilization activation | Potency |
| --- | --- | --- |
| COc1ccc(CSc2nc3ccncc3n2Cc2nc(-c3ccc(OC)c(OC)c3)oc2C)cc1 | inconclusive: 0.758% [signal inhibitor] |  |
| CCOC(=O)c1ccc(NC(=O)Cc2coc3cc(C)cc(C)c23)cc1 | inactive: 0.532% |  |
| CCOC(=O)c1c(-c2ccccc2)oc2ccc(NS(=O)(=O)c3ccccc3)cc12 | inconclusive: 18.8% [signal inhibitor] |  |
| COc1ccc(S(=O)(=O)NCc2cccn2Cc2cccc(C)c2)cc1OC | inconclusive: -1.42% [signal inhibitor] |  |
| CCCCc1nn2c(=O)cc(COC(=O)c3ccccc3NC(=O)C3CCCCC3)nc2s1 | inactive: -1.33% |  |
| Cc1ccc(O)c(Sc2cc(C)ccc2O)c1 | inconclusive: 5.32% [signal inhibitor] |  |
| CCOc1ccc(NC(=O)c2cc3c(=O)n4cccc(C)c4nc3s2)cc1 | inactive: -3.02% |  |
| O=C(c1c(Cl)nc2sccn12)N1CCN(c2cccc(Cl)c2)CC1 | inconclusive: 10.8% [signal inhibitor] |  |
| COc1ccc(CNC(=O)c2cnc(N3CCCC3)nc2C)cc1 | inactive: 0.12% |  |
| Nc1c(Cl)cc(Cl)cc1Cl | inactive: -1.44% |  |
| Cc1sc2ncnc(Sc3nnnn3-c3ccc(Cl)cc3)c2c1C |  | inconclusive: 31.6 µM [rising, partial curve] |
| C(=N\c1c(-c2ccccc2)nc2n1CCS2)/c1ccccc1 | inactive: 1.3% |  |
| CC(=O)c1ccc(NC(=O)CSc2nc(-c3ccccc3F)nc3c2c(=O)n(C)c(=O)n3C)cc1 |  | inconclusive: 31.6 µM [rising, single point] |
| Cc1ccc(C(c2sc3nc(-c4ccco4)nn3c2O)N2CCCCC2)cc1 (stereo not given) | inactive: 5.42% |  |
| Cc1ccc(N(C)S(=O)(=O)c2ccc3[nH]cc(C(=O)O)c(=O)c3c2)cc1C | inconclusive: 1.39% [signal inhibitor] |  |
| CCN(Cc1ccccc1)C(=O)Nc1ccc2c(c1)N(C)C(=O)c1ccccc1S2 | inactive: 5.97% |  |
| Cc1ccc(C(=O)Nc2ccc3c(c2)N(C)C(=O)c2ccccc2S3)cc1F | inconclusive: -0.909% [signal inhibitor] |  |
| CCSc1nnc(NC(=O)CSc2nccn2-c2cccc(C)c2)s1 | inconclusive: 3.77% [signal inhibitor] |  |
| CC1Cc2cc(S(=O)(=O)NCc3ccc(F)cc3)ccc2N1C(=O)C1CCC1 (stereo not given) | inactive: -0.637% |  |
| CC(=O)Oc1ccc(-c2ccc(C(=O)O)cc2)cc1 | inconclusive: 2.88% [signal inhibitor] |  |
| COCCN(CCOC)S(=O)(=O)c1ccc(C(=O)Nc2nc(-c3ccncc3)cs2)cc1 | inconclusive: -0.356% [signal inhibitor] |  |
| O=C(NCc1cccs1)c1ccc(CSc2nc3ccncc3n2Cc2cccc(F)c2)cc1 | inconclusive: 0.698% [signal inhibitor] |  |
| COc1ccccc1CNC(=O)Nc1ccc2c(c1)N(C)C(=O)c1ccccc1S2 | inconclusive: 2.09% [signal inhibitor] |  |
| O=C(Nc1ccc(S(=O)(=O)NCc2ccco2)cc1)c1ccc2ccccc2n1 |  | inconclusive: 25.1 µM [rising, single point] |

| SMILES | IkBa stabilization activation | Potency |
| --- | --- | --- |
| COc1ccc(-c2cc(C(F)(F)F)nc(NCc3ccco3)n2)cc1OC | inactive: -0.421% |  |
| Clc1cccc(-c2noc3ncnc(NC4CCCCC4)c23)c1 | inconclusive: 19.4% [signal inhibitor] |  |
| COc1cccc2cc(-c3nc(-c4cccs4)no3)c(=O)oc12 |  | inconclusive: 15.8 µM [signal inhibitor] |
| CCC(C)COC(=O)c1ccc(C(=O)O)cc1 (stereo not given) | inactive: 0.699% |  |
| c1ccc2c(c1)Cn1c-2nc2ccccc21 | inconclusive: 6.89% [signal inhibitor] |  |
| COc1cc(NC(=O)CCc2c(C)nc3c(c(C)nn3-c3ccccc3)c2C)cc(OC)c1OC | inconclusive: 1.76% [signal inhibitor] |  |
| CN1C(=O)C2CCCCN2c2ccc(C(=O)NCc3ccccc3Br)cc21 (stereo not given) | inconclusive: 4.79% [signal inhibitor] |  |
| CCOC(=O)c1c(C)c(C(=O)NCCc2ccc(OC)cc2)c(C)n1CC | inconclusive: -1.61% [signal inhibitor] |  |
| CC(C)(C)C1CCc2c(sc3c2C(=O)NC(c2ccco2)N3)C1 (stereo not given) | inconclusive: 3.9% [signal inhibitor] |  |
| O=C(O)/C=C\C(=O)N1Cc2cc3ccccc3nc2C1 | inactive: 0.327% [at 11.4 µM, scaled: untreated 0%, proteasome inhibitor 100%] |  |
| Cc1oc(-c2ccccc2F)nc1CN1CCC(C(=O)NCCc2ccc(Cl)cc2)CC1 | inconclusive: 1.04% [signal inhibitor] |  |
| CCOC(=O)c1cc2c(=O)n3ccccc3nc2n(CCOC)c1=NC(=O)C(C)(C)C | inactive: 0.847% |  |
| CCOc1ccc(-c2nonc2NC(=O)c2oc3ccc(Cl)cc3c2C)cc1 | inconclusive: 7.41% [signal inhibitor] |  |
| COC(=O)c1ccccc1NC(=O)CCCn1nc(C)c2sc3ccccc3c2c1=O | inconclusive: 0.719% [signal inhibitor] |  |
| COc1ccc(-c2nnn3c2nc(NCc2ccccc2)c2ccccc23)cc1 | inconclusive: 3.8% [signal inhibitor] |  |
| CC1=C(C(=O)Nc2ccc(C)cc2C)C(CC(C)C)n2nc(SCc3ccccc3C)nc2N1 (stereo not given) | inconclusive: 6.38% [signal inhibitor] |  |
| COc1cc(CNc2ccc3[nH]c(=O)[nH]c3c2)ccc1OCC(=O)NC(C)(C)C | inactive: 1.75% |  |
| O=c1oc2c(F)cc(F)cc2cc1S(=O)(=O)c1ccc(F)cc1 |  | inconclusive: 31.6 µM [signal activator, single point] |
| Cc1cc(O)ccc1Nc1nc2ccccc2nc1Nc1ccc(O)cc1C | inconclusive: -6.15% [signal inhibitor] |  |
| CCOc1ccccc1NC(=O)c1c(NCc2ccc(C)o2)sc2c1CCCCC2 | inconclusive: 1.05% [signal inhibitor] |  |
| Cc1ccc(Cc2nc3ccccc3nc2SCC(=O)N2CCCCC2)cc1 | inconclusive: 1.59% [signal inhibitor] |  |
| COc1ccccc1CNc1ncnc2ccc(-c3cccc(NS(C)(=O)=O)c3)cc12 | inactive: -0.653% [at 11.4 µM, scaled: untreated 0%, proteasome inhibitor 100%] |  |
| CCOc1ccccc1-c1nc(-c2cc3ccccc3nc2OC)no1 | inconclusive: 8.23% [signal inhibitor] |  |
| CCOc1ccc(CN2CCN(S(=O)(=O)c3ccc(Cl)cc3)CC2)cc1 |  | inconclusive: 39.8 µM [signal inhibitor] |

| SMILES | IkBa stabilization activation | Potency |
| --- | --- | --- |
| O=C(O)CCCC(=O)Nc1cccc(-c2nc3ccccc3[nH]2)c1 | inconclusive: 8.68% [signal inhibitor] |  |
| c1cncc(-c2cc(-n3ccnc3)ncn2)c1 | inactive: -2.17% [at 11.4 µM, scaled: untreated 0%, proteasome inhibitor 100%] |  |
| CCS(=O)(=O)N1CCc2cc(C(=O)N3CCN(c4ccccc4)CC3)ccc21 | inactive: 1.73% |  |
| CCCCC(=O)Nc1cc(-c2nc3ccccc3o2)ccc1OC | inconclusive: -2.49% [signal inhibitor] |  |
| Cc1cc(C)n2nc(SCC(=O)Nc3ccc(O)cc3)nc2n1 | inactive: 0.433% |  |
| Cc1ccc(NC(=O)CSc2ncccc2C(=O)Oc2ccccc2Cl)cc1Cl | inconclusive: 13.4% [signal inhibitor] |  |
| COc1ccc2[nH]cc(CCNC(=O)Nc3c(C)cccc3C)c2c1 | inconclusive: -0.872% [signal inhibitor] |  |
| COc1cc(C)ccc1OCCSc1nc2ccc(NC(=O)c3ccc4c(c3)OCO4)cc2s1 | inactive: -1.46% |  |
| Cc1cc(NC(=O)CN(C)S(=O)(=O)c2ccc3c(c2)CCCC(=O)N3)ccc1Br | inconclusive: 0.232% [signal inhibitor] |  |
| COc1cc(-c2nc(Cn3nnc(C(=O)Nc4ccccc4C)c3C)c(C)o2)cc(OC)c1OC | inconclusive: 0.469% [signal inhibitor] |  |
| Cc1ccc(-c2cc(C(=O)N3CCN(c4ncccn4)CC3)c3ccccc3n2)cc1 | inconclusive: 14.7% [signal inhibitor] |  |
| N=C(CC(=O)Nc1ccccn1)c1ccccc1 | inconclusive: 13.1% [signal inhibitor] [at 11.4 µM, scaled: untreated 0%, proteasome inhibitor 100%] |  |
| COc1ccc(-c2n[nH]c3c2C(c2ccc(Cl)cc2Cl)NC3=O)cc1 (stereo not given) | inconclusive: -2.26% [signal inhibitor] |  |
| CCN(CCCNC(=O)c1ccc(Sc2ccc(C)cc2)c(NC(C)=O)c1)c1cccc(C)c1 | inconclusive: 0.49% [signal inhibitor] |  |
| Cc1ccc2oc(-c3ccc(C)c(NC(=O)c4ccc5c(c4)OCCO5)c3)nc2c1 |  | inconclusive: 31.6 µM [signal inhibitor] |
| Cc1ccc(F)cc1NC(=O)CCc1c(C)nn(-c2ccc(N3CCCCC3)nn2)c1C | inconclusive: -0.188% [signal inhibitor] |  |
| CCCC1=C(C(=O)OCC)C(c2cc(Cl)cc(OC)c2OCC(=O)OCC)NC(=O)N1 (stereo not given) | inconclusive: 1.13% [signal inhibitor] |  |
| CCOC(=O)c1ccc(-c2ccc(/C=C(\C#N)C(=O)Nc3c(C)cccc3Cl)o2)cc1 | inconclusive: 1.22% [signal inhibitor] |  |
| CCOc1ccc(-c2nc(-c3ccccc3C)no2)cc1 | inactive: -7.22% |  |
| O=S(=O)(NCc1ccc(F)cc1)c1ccc2[nH]c3c(c2c1)CCCCC3 | inconclusive: 0.463% [signal inhibitor] |  |
| Cc1ccc(C(C(=O)NCc2ccc(F)cc2)N(C(=O)c2csnn2)C2CC2)o1 (stereo not given) | inactive: 2.74% |  |
| CCOC(=O)c1nc(Nc2ccc(OC)cc2)c2ccccc2n1 | inconclusive: 0.31% [signal inhibitor] |  |
